Source: the supplement of paper PMC11417369
This is one part of the list.

Tested on: PfSIP2 AP2 domain 1 (GST-tagged)
Assay: gcPBM binding intensity (ln(normalized median fluorescence intensity)); higher = stronger DNA binding
How it was run: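 DNA-binding domains from P. falciparum, fused to GST and produced in E. coli, were put on an Agilent 4 × 180k double-stranded probe array for 1 h in 1× PBS holding 1% milk, 0.2 mg/ml BSA, 0.5% salmon testes DNA and 0.03% Triton X-100. Probes were primer-extended, 36 bp long and drawn from intergenic genomic regions, with negative controls included. After Alexa488 anti-GST antibody detection and a 488 nm scan, binding intensity was set as the highest Masliner-normalised natural-log median intensity across replicate spots of either probe orientation.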

Row | Sequence | gcPBM binding intensity (ln)
1 | AATCAATTAATATTAGCATAAAATTTTATTATTTTG [XGTACX_negctrl_site479] | 6.75
2 | TGTATCCATATTTGTTCACACACACCCATATTTATA [CACACA_site9190] | 7.27
3 | ATAATATGTATGGTCACACAGACAAGGAAAGAATAA [CACACA_site5164] | 7.16
4 | AAAAAAAAAAATAAAGAAATCAAAATTGATGAATAA [GTGCAC_negctrl_site692] | 6.64
5 | TGTGTAAACATATTCACACACATAAATTCGCATATA [CACACA_site6961] | 6.81
6 | TATATAAAAAATAAATGTACACATGTAATAATAAAA [XGTACX_site2640] | 7.25
7 | TATAAATATACACCCACACACATATATATATATATA [CACACA_site3745] | 9.29
8 | TATATATATTTATGCTGTACCAAATAAGAATAGAAA [XGTACX_site7731] | 7.26
9 | ATATGAACAAAATAAATCTCTTCAAAAATAATGTTC [GTGCAC_negctrl_site2] | 6.82
10 | TAAATGATTGCATAATGTACATATAATTTTTTTTTT [XGTACX_site1988] | 6.96
11 | AGCACAAGCACAAGCACACATTTATATATAAATACA [CACACA_site4642] | 7.01
12 | ACAAAATATACAAAATGTACAAAATTTACAAAATAT [XGTACX_site6466] | 7.02
13 | TACCCATGCATTTTTGCACACACATATATATATAAA [CACACA_site1429] | 8.32
14 | AGACAGCGCACAAACACACAAACACCCACCCACATA [CACACA_site451] | 7.15
15 | TACTTACATATAATAACACACAAGAAAAAAATAAAA [CACACA_site1033] | 7.15
16 | ATTTTTGTACACTTCTTTTTTTTTTTTCTTTTATGT [CACACA_negctrl_site1323] | 7.11
17 | TATTATCTCTTATGAACACACATTTTTATTTTCAAA [CACACA_site3353] | 6.92
18 | ATATCGTATATGAGTGGTACTAATATGTAAAAAAAA [XGTACX_site7830] | 7.01
19 | AAAGTTATAATACGTACACACCTTATCTTTTTGGCT [CACACA_site6267] | 6.99

Row | Sequence | gcPBM binding intensity (ln)
20 | TTTATGGGTATGTTTACACACATAAAAAAATATATG [CACACA_site5646] | 6.9
21 | ATATATATGAAAATATGTACATATATATATATATAA [XGTACX_site7550] | 7.3
22 | ATATAAGTATTTTGAATGCACTTTCTTTTTTTTTTT | 8.3
23 | ACTGAAAAAAGAAATACACACATTCTGGATCATATA [CACACA_site3860] | 6.79
24 | TTATAAAATAATTAATGTACGTTTATGTGTATCGAA [XGTACX_site6117] | 7.13
25 | AACGATATCTGTACTACACACATTATGTCATCCTAT [CACACA_site5374] | 7.14
26 | AATATTAAAAACAAAACACACAAAAAAAAATAAACT [CACACA_site6470] | 7.09
27 | ATTAACACTGAAAAATGTACATATATAAATATAAGC [XGTACX_site8222] | 7.05
28 | TAAAATAATACAAAATGTACAAAATTTACAAAATGT [XGTACX_site3541] | 6.95
29 | ATGTAAATTAAACATGGTACACATTATACAAAATTA [XGTACX_site5675] | 6.95
30 | AATATAGAACAATGTTGTACATATAATAATCTTATA [XGTACX_site4671] | 6.86
31 | TAATAATAAAAATAAACACACATATAGATGTATATA [CACACA_site7360] | 6.75
32 | ATTTTGTTCGAAAGGTGTACATATACAAAAATTATG [XGTACX_site957] | 7.49
33 | ATTGCTTTTCTTTTTGCACACTTATGCATATATATA [CACACA_site2584] | 10.2
34 | AGCACACCCACAAAAACACACACAAAGGTGTTCTTA [CACACA_site8355] | 6.99
35 | TCATTATTATTCCTCACACATATATATATATATATT [CACACA_site4375] | 7.42
36 | CACTTTTCATATATGACACACAAAAAATTAATAAAA [CACACA_site3639] | 7.32
37 | GCATGTATAATGGTAGTGCATATAATAATATAATAA [GTGCAC_site9548] | 9.06
38 | ATATTGTAAGTAAAATGTAATAAATATAATAAAATA [CACACA_negctrl_site697] | 7.03

Row | Sequence | gcPBM binding intensity (ln)
39 | TTAGTATATACATTTGCACACATTATTTTTTAACAT [CACACA_site2618] | 7.2
40 | AAAAGGAAAATACTAGCACACAATATATAATAAACA [CACACA_site285] | 6.98
41 | TCCTTGCATTTTAAAACACACAAAAATTAATTGTTA [CACACA_site7152] | 7.54
42 | TTTCTAATTATTTCCCTTCAAATATATTAATATCGT [CACACA_negctrl_site429] | 7.02
43 | TAAAAATGTGGACACACACACATATATATATTTAAT [CACACA_site4941] | 7.08
44 | ATATATATTATTATATGTACATATAAATATATTAAT [XGTACX_site5270] | 7.1
45 | TTCATATATTATTATGCATGTTCATAAATTATCTAA [TGCATGCA_site896] | 6.99
46 | TTCATATAATTATATACATGCATAAATTCTAAGTAA [TGCATGCA_site622] | 6.91
47 | ATTTTATAAACAAATGAACACACAAACATATATATA [CACACA_site9036] | 7.15
48 | TACATACATAAACACACACACACATATATATATATA [CACACA_site8953] | 9.26
49 | ATCAAAAGAAAACACACACACATACATATATATATA [CACACA_site3795] | 9.07
50 | ATTTGTGTATATTAGAGTACATAAAATTAGAGGAAC [XGTACX_site1654] | 7.61
51 | CATTAATGACATGATTGTACATAAGCTTTTTTACAT [XGTACX_site1888] | 6.88
52 | ACCCATTCAAATTTCGCACACACATACAAAAAAAAA [CACACA_site3094] | 7.9
53 | TATTTAAAAATAAAATGTACATATTATTATGCATTA [XGTACX_site1303] | 7.06
54 | TGATTCTAACTTATGGTGCAACATTATGGACACCGT | 10.7
55 | TTACATATTTATGATTGTACACATTTATAAACAATA [XGTACX_site2190] | 6.99
56 | TTAATATTGTTATAGCGTACAAATAAACATATTAAA [XGTACX_site8153] | 7.05
57 | AATGTTAAGGAGGGGAGTACATAAAATTCTCTCTCC [XGTACX_site1990] | 7
